Measurements: paper PMC6304311 (Influenza and Other Respiratory Viruses, 2018)

Test system: influenza virus isolates from SARI patients [A(H1N1)pdm09, influenza B, A(H3N2)]
Format: biochemical

CC(=O)N[C@H]1[C@H]([C@H](O)[C@H](O)CO)OC(C(=O)O)=C[C@@H]1N=C(N)N [zanamivir]
susceptibility of isolates from SARI cases: susceptible
